Among the data in PMC12820563, “FoxP3 forms a head-to-head dimer in vivo and stabilizes its multimerization on adjacent microsatellites” are binding signal values, retold here.

The list shows a part of the results.

This experiment has as its target T1, MBP-FoxP1dN (Mus musculus, UniProt P58462 326-579).
T1 sequence: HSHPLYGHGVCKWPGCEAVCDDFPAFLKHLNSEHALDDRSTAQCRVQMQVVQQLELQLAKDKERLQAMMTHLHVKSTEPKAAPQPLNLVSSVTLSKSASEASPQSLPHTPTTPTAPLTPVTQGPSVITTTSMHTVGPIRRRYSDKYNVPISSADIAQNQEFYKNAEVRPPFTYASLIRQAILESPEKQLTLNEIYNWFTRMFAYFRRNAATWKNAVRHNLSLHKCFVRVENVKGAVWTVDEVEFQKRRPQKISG
Briefly: PD-seq (MBP pull-down with sequencing); 20 mM Tris-HCl pH 7.5, 100 mM NaCl, 1.5 mM MgCl2, 0.4 uM protein, 0.1 uM dsDNA library, 30 min, room temperature, amylose pull-down; high values mean tight binding. The conditions noted are these: protein: recombinant; tags: His6-MBP; chain copies: 2; dsDNA, one strand shown. In a few lines:
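His6-MBP-tagged mouse FoxP3 or FoxP1 fragment lacking the N-terminus, expressed in E. coli, was mixed at 0.4 µM with 0.1 µM Klenow-filled double-stranded degenerate DNA library. Incubation was 30 min at room temperature in Tris pH 7.5 buffer with NaCl and MgCl2. Complexes were caught on amylose resin and washed three times; DNA was released with proteinase K, PCR-barcoded and Illumina-sequenced. Binding is reads-per-million enrichment, pull-down over input, with replicates pooled.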
Take “GATGATTGTTCTCCCAGCTGATGAATTCGATGGATCGAGTAAACAAATTTTCCTAATCTTTCTGTTCAAGCGCCATCTAC”: the binding signal is 0.814 RPM ratio (pull-down/input). To “GATGATTGTTCTCCCAGCTGATGAATTGTCACCTTCGAGTAAACAAATTTTCCTAATCTTTCTGTTCAAGCGCCATCTAC” belongs 1.07 RPM ratio (pull-down/input); to “GATGATTGTTCTCCCAGCTGATGAATTGATGAGGTCGAGTAAACAAATTTTCCTAATCTTTCTGTTCAAGCGCCATCTAC”, 0.884 RPM ratio (pull-down/input).

For the sequence “GATGATTGTTCTCCCAGCTGATGAATTAGAAAATTCGAGTAAACAAATTTTCCTAATCTTTCTGTTCAAGCGCCATCTAC”, the binding signal is 0.856 RPM ratio (pull-down/input). To “GATGATTGTTCTCCCAGCTGATGAATTGGATCCATCGAGTAAACAAATTTTCCTAATCTTTCTGTTCAAGCGCCATCTAC” belongs 0.893 RPM ratio (pull-down/input); to “GATGATTGTTCTCCCAGCTGATGAATTGCGGCCATCGAGTAAACAAATTTTCCTAATCTTTCTGTTCAAGCGCCATCTAC”, 1.08 RPM ratio (pull-down/input).

As to “GATGATTGTTCTCCCAGCTGATGAATTCAGTCCGTCGAGTAAACAAATTTTCCTAATCTTTCTGTTCAAGCGCCATCTAC”, the binding signal was 0.766 RPM ratio (pull-down/input). To “GATGATTGTTCTCCCAGCTGATGAATTATACTTTTCGAGTAAACAAATTTTCCTAATCTTTCTGTTCAAGCGCCATCTAC” belongs 1.14 RPM ratio (pull-down/input); to “GATGATTGTTCTCCCAGCTGATGAATTTACGCCTTCGAGTAAACAAATTTTCCTAATCTTTCTGTTCAAGCGCCATCTAC”, 1.29 RPM ratio (pull-down/input); to “GATGATTGTTCTCCCAGCTGATGAATTATACAAGTCGAGTAAACAAATTTTCCTAATCTTTCTGTTCAAGCGCCATCTAC”, 1.27 RPM ratio (pull-down/input).

Turning to “GATGATTGTTCTCCCAGCTGATGAATTCAGAGGATCGAGTAAACAAATTTTCCTAATCTTTCTGTTCAAGCGCCATCTAC”, the binding signal is 0.836 RPM ratio (pull-down/input).

With “GATGATTGTTCTCCCAGCTGATGAATTGCCACTGTCGAGTAAACAAATTTTCCTAATCTTTCTGTTCAAGCGCCATCTAC”, the binding signal is 0.956 RPM ratio (pull-down/input). To “GATGATTGTTCTCCCAGCTGATGAATTTCGATTATCGAGTAAACAAATTTTCCTAATCTTTCTGTTCAAGCGCCATCTAC” belongs 1.09 RPM ratio (pull-down/input); to “GATGATTGTTCTCCCAGCTGATGAATTTTACCCGTCGAGTAAACAAATTTTCCTAATCTTTCTGTTCAAGCGCCATCTAC”, 0.835 RPM ratio (pull-down/input). The figure for “GATGATTGTTCTCCCAGCTGATGAATTTTGGCGCTCGAGTAAACAAATTTTCCTAATCTTTCTGTTCAAGCGCCATCTAC” is 0.742 RPM ratio (pull-down/input). To “GATGATTGTTCTCCCAGCTGATGAATTGAGCCACTCGAGTAAACAAATTTTCCTAATCTTTCTGTTCAAGCGCCATCTAC” belongs 0.828 RPM ratio (pull-down/input); to “GATGATTGTTCTCCCAGCTGATGAATTCGAGATCTCGAGTAAACAAATTTTCCTAATCTTTCTGTTCAAGCGCCATCTAC”, 0.762 RPM ratio (pull-down/input); to “GATGATTGTTCTCCCAGCTGATGAATTCCAACTTTCGAGTAAACAAATTTTCCTAATCTTTCTGTTCAAGCGCCATCTAC”, 0.884 RPM ratio (pull-down/input). As for “GATGATTGTTCTCCCAGCTGATGAATTCCTGCACTCGAGTAAACAAATTTTCCTAATCTTTCTGTTCAAGCGCCATCTAC”, the binding signal is 0.826 RPM ratio (pull-down/input).

Turning to “GATGATTGTTCTCCCAGCTGATGAATTCTCCTCATCGAGTAAACAAATTTTCCTAATCTTTCTGTTCAAGCGCCATCTAC”, the binding signal was 0.888 RPM ratio (pull-down/input).

For “GATGATTGTTCTCCCAGCTGATGAATTCACATCATCGAGTAAACAAATTTTCCTAATCTTTCTGTTCAAGCGCCATCTAC”, the binding signal is 1.1 RPM ratio (pull-down/input).

In the case of “GATGATTGTTCTCCCAGCTGATGAATTGACTGCCTCGAGTAAACAAATTTTCCTAATCTTTCTGTTCAAGCGCCATCTAC”, the binding signal is 0.958 RPM ratio (pull-down/input).

Turning to “GATGATTGTTCTCCCAGCTGATGAATTCCTGGTATCGAGTAAACAAATTTTCCTAATCTTTCTGTTCAAGCGCCATCTAC”, the binding signal was 0.87 RPM ratio (pull-down/input). The figure for “GATGATTGTTCTCCCAGCTGATGAATTGGATGCTTCGAGTAAACAAATTTTCCTAATCTTTCTGTTCAAGCGCCATCTAC” is 1.05 RPM ratio (pull-down/input); for “GATGATTGTTCTCCCAGCTGATGAATTTATTATATCGAGTAAACAAATTTTCCTAATCTTTCTGTTCAAGCGCCATCTAC” it is 1.22 RPM ratio (pull-down/input); for “GATGATTGTTCTCCCAGCTGATGAATTGCTAAGGTCGAGTAAACAAATTTTCCTAATCTTTCTGTTCAAGCGCCATCTAC” it is 0.922 RPM ratio (pull-down/input). To “GATGATTGTTCTCCCAGCTGATGAATTGTTGTGATCGAGTAAACAAATTTTCCTAATCTTTCTGTTCAAGCGCCATCTAC” belongs 2.32 RPM ratio (pull-down/input); to “GATGATTGTTCTCCCAGCTGATGAATTTGGGACTTCGAGTAAACAAATTTTCCTAATCTTTCTGTTCAAGCGCCATCTAC”, 0.918 RPM ratio (pull-down/input). As for “GATGATTGTTCTCCCAGCTGATGAATTCCGCGACTCGAGTAAACAAATTTTCCTAATCTTTCTGTTCAAGCGCCATCTAC”, the binding signal is 0.761 RPM ratio (pull-down/input). Consider “GATGATTGTTCTCCCAGCTGATGAATTCTATATATCGAGTAAACAAATTTTCCTAATCTTTCTGTTCAAGCGCCATCTAC”, for which the binding signal was 0.946 RPM ratio (pull-down/input).

As to “GATGATTGTTCTCCCAGCTGATGAATTCAGCGATTCGAGTAAACAAATTTTCCTAATCTTTCTGTTCAAGCGCCATCTAC”, the binding signal was 0.919 RPM ratio (pull-down/input). To “GATGATTGTTCTCCCAGCTGATGAATTGTACACATCGAGTAAACAAATTTTCCTAATCTTTCTGTTCAAGCGCCATCTAC” belongs 2.11 RPM ratio (pull-down/input).
